Reference: PubChem BioAssay AID1347417 (National Center for Advancing Translational Sciences (NCATS), 2020)
In all, about 120,000 compounds went through this assay and about 5,300 (4.4%) were called active. Inconclusive results, whose numbers are uncertain, are shown with a selection of clear calls. The call rests on the fitted dose curve; in most records, active means well fitted inhibition curve with a large enough effect; inconclusive means small, poorly fitted or top-dose-only effect; inactive means no such curve, though single readings can be large or run the other way. Potencies of inconclusive entries are doubtful fits and often do not repeat.

Experiment: qHTS Primary assay for Inhibitors of Plasmodium falciparum Dd2 growth in vitro; further: nearly all actives have a fitted effect of over 65% in size;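 on activity, negative = inhibition: plate controls were DMSO vehicle for no effect and reference drug for full effect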
Settings: P. falciparum Dd2 growth, SYBR Green, 72 h; activity, negative = inhibition: at 28.9 µM (top of the series) unless noted; series mostly up to 28.9 µM
Procedure, shortened: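 Infected erythrocytes (Dd2, 0.3% parasitemia, 2.5% hematocrit final) are added to compound in RPMI-1640/Albumax II medium, grown 72 h at 37C in low oxygen, then lysed with saponin/Triton-X containing SYBR Green and read by fluorescence.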
Potency means the concentration at half of the fitted maximal effect; tags describe the fitted curve by direction and shape.

| Compound | Potency | activity, negative = inhibition | outcome |
| --- | --- | --- | --- |
| CCN(C(=O)Cn1c(=O)n(Cc2ccc3c(c2)OCO3)c(=O)c2ccc(C(=O)NC3CCCCC3)cc21)c1cccc(C)c1 | active: 1.26 µM | – | – |
| O=C(N[C@@H]1CCC[C@@H]1C(=O)N1CCN(c2ccccn2)CC1)c1ccncc1 | inconclusive: 7.08 µM [inhibitor, partial curve, poor fit] | – | – |
| Cc1cccc2c(=O)cc(CSc3ccccc3NC(=O)C(C)(C)C)[nH]c12 | inconclusive: 17.8 µM [inhibitor, single point] | – | – |
| COc1ccc(OCc2ccc(-c3nc(C#N)c(NCc4cccnc4)o3)o2)cc1 | inconclusive: 10 µM [inhibitor, single point] | – | – |
| Cc1cc(CN2CCC3(C2)C(=O)N(c2ccccc2)c2ccccc23)no1 (stereo not given) | – | inactive: -17.9% | – |
| CCC(=O)N1CCCc2cc(S(=O)(=O)N3CCC(C(=O)Nc4ccc(C#N)cc4)CC3)ccc21 | inconclusive: 7.94 µM [inhibitor, partial curve, poor fit] | – | – |
| CC(C)(C)C(=O)N1CCn2c(nnc2[C@@H]2C[C@@H](O)CN2Cc2ccccc2)C1 | – | inactive: 22% | – |
| COCCN1CCCCCC(O)c2cc(C(=O)N(C)Cc3ccc(N4CCCCC4)cc3)ccc21 (stereo not given) | inconclusive: 2.24 µM [inhibitor, single point] | – | – |
| CCCCc1cn(CC2CCN(C(=O)c3sc(C)nc3C)CC2)nn1 | inconclusive: 15.8 µM [inhibitor, partial curve, poor fit] | – | – |
| O=C1NCCCCCN(C(=O)CC2CCCCC2)[C@@H]2C[C@@H](C(=O)N3CCc4ccccc4C3)C[C@H]12 | active: 7.08 µM | – | – |
| COc1cccc(C(=O)N[C@@H]2CN(S(C)(=O)=O)C[C@H]2CN(C)C)c1C | – | inactive: 22.1% | – |
| Cc1ccc(OCCSc2nc3ccc(NC(=O)c4ccco4)cc3s2)cc1 | inconclusive: 0.891 µM [inhibitor, single point] | – | – |
| O=C(COc1ccccc1)N1CCOC[C@H](Oc2ccccc2)C1 | – | – | inactive [at 44.1 µM] |
| COc1ccc(-c2cc3ccc(O)c(CN4CCCCC4C)c3oc2=O)cc1OC (stereo not given) | active: 7.08 µM | – | – |
| COCc1cc(CNC(=O)CC2C(=O)NCCN2Cc2ccccc2)[nH]n1 (stereo not given) | – | inactive: -15.3% | – |
| O=c1[nH]c(C2CCCN(Cc3ccc(F)cc3)C2)nn1-c1ccc(Cl)cc1 (stereo not given) | inconclusive: 0.562 µM [inhibitor, full curve] | – | – |
| CCc1[nH]c2c(CNC(=O)c3n[nH]c4c3CCC4)cc(C)cc2c1C | inconclusive: 7.08 µM [inhibitor, partial curve] | – | – |
| CC1CCN(CCCNC(=O)CN2C(=O)CSc3ccc(S(=O)(=O)N4CCOCC4)cc32)CC1 | – | inactive: 5.62% | – |
| O=C1NCCOCCN(S(=O)(=O)c2cccc3cccnc23)[C@@H]2CCCC[C@H]12 | – | inactive: -13.1% | – |
| Cc1ccsc1C(=O)N1CCC(n2nccc2NC(=O)c2cccc(F)c2)CC1 | inconclusive: 20 µM [inhibitor, single point] | – | – |
| CCn1c(=O)c2cc(C(=O)NCCc3ccc(Cl)cc3)sc2c2ccccc21 | – | inactive: 5.17% | – |
| CCC(=O)N1CCc2c(sc3ncnc(N)c23)C1 | inconclusive: 4.47 µM [inhibitor, partial curve, poor fit] | – | – |

| Compound | Potency | activity, negative = inhibition | outcome |
| --- | --- | --- | --- |
| COc1cccc(C(=O)N2CCC(N3C[C@H](O)C[C@H]3C(=O)Nc3cccc(C)c3)CC2)c1 | inconclusive: 17.8 µM [inhibitor, single point] | – | – |
| Cc1noc(C)c1-c1cc(-c2ccc([S+](C)(=O)[O-])cc2)cn2cncc12 | inconclusive: 31.6 µM [inhibitor, single point] | – | – |
| Cc1cc(C)cc(NC(=O)C2CCN(C(=O)c3ncn4c3COC(c3ccccc3)C4)CC2)c1 (stereo not given) | inconclusive: 17.8 µM [inhibitor, single point] | – | – |
| Cc1cccc(CN2C(=O)c3ccccc3S(=O)(=O)c3ccc(C(=O)NC4CCCCC4)cc32)c1 | – | inactive: -3.59% | – |
| Cc1ccc(NC(=O)c2c(C)oc3ncn(CC(C)C)c(=O)c23)nc1 | inconclusive: 0.562 µM [inhibitor, full curve] | – | – |
| Cc1ccc(C(=O)N2CCC[C@H]2c2nc(-c3ccccc3)no2)c(C)c1 | – | – | inactive |
| COC(=O)c1cn([C@H]2CO[C@H]3[C@@H]2OC[C@@H]3NC(=O)c2ccc(C)cc2)nn1 | inconclusive: 11.2 µM [inhibitor, single point] | – | – |
| COc1cccc(COC2CN(C(=O)CCc3scnc3C)CC(=O)N(Cc3ccccn3)C2)c1 (stereo not given) | – | inactive: 3.81% | – |
| COc1ccccc1-c1cnc2n[nH]c(-c3ccccc3C)c2n1 | inconclusive: 11.2 µM [inhibitor, partial curve, poor fit] | – | – |
| O=C(NCc1ccccc1Cl)c1ccc2c(c1)N(Cc1ccccc1)CCS2 | inconclusive: 11.2 µM [inhibitor, single point] | – | – |
| O=C(NC[C@H]1O[C@H](Cc2cc(-c3ccc(F)cc3)on2)CC[C@@H]1O)c1ccncc1 | inconclusive: 10 µM [inhibitor, partial curve, poor fit] | – | – |
| CN(C(=O)c1ccc(F)cc1)C1CCc2ccccc21 (stereo not given) | inconclusive: 31.6 µM [inhibitor, single point] | – | – |
| O=C(N[C@H]1CCN2C(=O)c3ccc(Cl)cc3NC(=O)[C@H]12)c1cccc(F)c1 | inconclusive: 2.51 µM [inhibitor, full curve, poor fit] | – | – |
| COc1cccc(C(=O)N2CCn3c(nnc3-c3ccccc3)C2)c1 | inconclusive: 7.08 µM [inhibitor, partial curve, poor fit] | – | – |
| O=C(Cc1ccsc1)Nc1ccc2c(N3CCCC3)ncnc2c1 | active: 5.01 µM | – | – |
| Cc1nc(N2CCC(NC(=O)c3cccs3)CC2)cc(C(F)(F)F)n1 | active: 5.01 µM | – | – |
| COc1cc(CNCc2ccccc2C)ccc1OCC(O)CN1CCOCC1 (stereo not given) | inconclusive: 5.62 µM [inhibitor, partial curve] | – | – |
| CC(C)NC(=O)NC[C@H]1O[C@@H](CC(=O)NCCN(C)C)[C@H](O)[C@@H]1O | – | inactive: 53.2% [at 44.1 µM] | – |
| O=C(Nc1ccsc1)N[C@H]1C[C@H]2C(=O)NC[C@@H](CCC(=O)N3CCCC3)N2C1 | – | inactive: -3.05% [at 44.1 µM] | – |
| O=S(=O)(c1ccc2nc(Nc3ccc(F)cc3)ccc2c1)N1CCCC1 | – | – | inactive |
| Cn1nc(-c2cccs2)cc1[C@H]1CN2CC[C@H]1C[C@@H]2CNC(=O)CCCC(=O)O | inconclusive: 10 µM [inhibitor, partial curve, poor fit] | – | – |
| Cc1cc(N2CCC(C)CC2)nc2ccc(NC(=O)CCC(=O)N3CCN(c4ccccc4F)CC3)cc12 | inconclusive: 12.6 µM [inhibitor, single point] | – | – |

| Compound | Potency | activity, negative = inhibition | outcome |
| --- | --- | --- | --- |
| CCCn1cc(-c2ccncc2)cc1C(=O)N1CCCCC1 | inconclusive: 20 µM [inhibitor, single point] | – | – |
| Cc1cc(OC2CN(Cc3ccc(C(F)(F)F)cc3)C2)ccc1F | – | – | inactive [at 44.1 µM] |
| Cc1cccc(-n2nnc(-c3nc(-c4cccs4)no3)c2N)c1 | inconclusive: 5.62 µM [inhibitor, full curve, poor fit] | – | – |
| O=C(CCC1CCCC1)N1CCC2(CC1)CC(N(C(=O)c1ccccc1)C1CC1)CCO2 (stereo not given) | – | inactive: -16.5% | – |
| Cn1ncc2c(C(=O)N3CCN(c4ncccn4)CC3)cc(-c3ccc([S+](C)(=O)[O-])cc3)nc21 | – | inconclusive: -40.1% [inhibitor] | – |
| Cc1noc2c(-c3cccnc3NCCN3CCOCC3)cc(-c3ccccc3)nc12 | inconclusive: 14.1 µM [inhibitor, single point] | – | – |
| Cc1ncsc1CN1CCC2(CC1)CN(Cc1ccccc1)CC2CO (stereo not given) | inconclusive: 11.2 µM [inhibitor, partial curve, poor fit] | – | – |
| COc1ccc(NC(C)(C)C(=O)N2CCC3(CCN(C)CC3)C2)cc1 | – | – | inactive |
| COc1ccc(-c2ccc3ncn(Cc4ccccn4)c(=O)c3n2)cc1F | – | inactive: -10.5% [at 44.1 µM] | – |
| O=C(C[C@@H]1CCNC[C@@H]1Cc1cc(-c2ccccc2)on1)NCc1ccccc1 | inconclusive: 7.94 µM [inhibitor, partial curve, poor fit] | – | – |
| O=C(NCCN1CCOCC1)c1ccc2c(c1)CC(=O)N2Cc1cccc(F)c1 | inconclusive: 3.98 µM [inhibitor, single point] | – | – |
| O=C1NCCCCCCN(Cc2cccnc2)[C@H]2CCC[C@@H]12 | inconclusive: 8.91 µM [inhibitor, partial curve] | – | – |
| Cc1n[nH]c(C)c1CNC(=O)CCC[C@H]1NC[C@@H]2C[C@H]1CN(Cc1ccccc1)C2 | inconclusive: 20 µM [inhibitor, single point] | – | – |
| COC(=O)[C@@H]1Cc2c([nH]c3ccccc23)[C@H]2C[C@@H](NCCCn3ccnc3)C[C@@H](c3cccc(Cl)c3)N21 | active: 2.24 µM | – | – |
| O=C(Nc1ccccc1F)N1CCCCCC1CN1CCCC1 (stereo not given) | inconclusive: 3.98 µM [inhibitor, single point] | – | – |
| O=c1c(N2CCN(c3cccc(Cl)c3)CC2)csc2ccc(Cl)cc12 | inconclusive: 11.2 µM [inhibitor, single point] | – | – |
| CN(Cc1cccnc1)Cc1nc(C2(O)CCN(C(=O)c3ccc(F)cc3)CC2)cs1 | – | inactive: -3.11% | – |
| COc1ccc(NC(=O)N2CCc3c(C(=O)Nc4ccc5c(c4)OCO5)cccc32)cc1 | inconclusive: 10 µM [inhibitor, partial curve, poor fit] | – | – |
| Cc1ccc(Cl)cc1Nc1nn2c(=O)c3ccc(C(=O)NC4CCCCC4)cc3nc2s1 | inconclusive: 12.6 µM [inhibitor, partial curve] | – | – |
| CC(C)S(=O)(=O)N1CCC2(CC1)CC(N1CCN(c3ccccn3)CC1)CCO2 (stereo not given) | inconclusive: 11.2 µM [inhibitor, partial curve, poor fit] | – | – |
| CCOc1ccc2c(c1)c(=O)c(S(=O)(=O)c1ccc(CC)cc1)cn2Cc1cccc(Cl)c1 | active: 10 µM | – | – |
